# The supplement of paper PMC8728848
# The list shows a part of the results.
# Assays:
# Test in all cases: glycan array binding signal (z-score within array); higher = stronger binding
# Settings in all cases: glycan notation: IUPAC condensed, linker removed
# [1] = target: GlcNAc(b1-3)[GlcNAc(b1-6)]GalNAc
# Procedure, shortened: (§1)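 The binding signal is a Z-score computed within each array and averaged over linkers. Arrays of the same protein sequence at different concentrations or buffers were also averaged together. Data originate from 3228 arrays in the Consortium for Functional Glycomics database, kept only where the protein sequence was available.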
# [2] = target: GlcNAc(b1-4)Gal(b1-4)GlcNAc
# Procedure, shortened: as §1
# [3] = target: GlcNAc(b1-4)GlcNAc
# Procedure, shortened: as §1
# [4] = target: GlcNAc(b1-4)GlcNAc(b1-4)GlcNAc
# Procedure, shortened: as §1
# [5] = target: GlcNAc(b1-4)GlcNAc(b1-4)GlcNAc(b1-4)GlcNAc(b1-4)GlcNAc
# Procedure, shortened: as §1
# [6] = target: GlcNAc(b1-4)GlcNAc(b1-4)GlcNAc(b1-4)GlcNAc(b1-4)GlcNAc(b1-4)GlcNAc
# Procedure, shortened: as §1
# [7] = target: GlcNAc(b1-4)[GlcNAc(b1-6)]GalNAc
# Procedure, shortened: as §1
# [8] = target: GlcNAc(b1-6)Gal(b1-4)GlcNAc
# Procedure, shortened: as §1
# [9] = target: GlcNAc(b1-6)GalNAc
# Procedure, shortened: as §1
# [10] = target: GlcNAc3Prop(b1-4)GlcNAc
# Procedure, shortened: as §1
# [11] = target: GlcNAc6S(b1-3)Gal(b1-4)GlcNAc
# Procedure, shortened: as §1
# [12] = target: Kdn(a2-3)Gal(b1-3)GalNAc
# Procedure, shortened: as §1
# [13] = target: Kdn(a2-3)Gal(b1-3)GlcNAc
# Procedure, shortened: as §1
# [14] = target: Kdn(a2-3)Gal(b1-4)Glc
# Procedure, shortened: as §1
# [15] = target: Kdn(a2-3)Gal(b1-4)GlcNAc
# Procedure, shortened: as §1
# [16] = target: Kdn(a2-3)Gal(b1-4)[Fuc(a1-3)]GlcNAc
# Procedure, shortened: as §1
# [17] = target: Kdn(a2-6)Gal(b1-4)GlcNAc
# Procedure, shortened: as §1
# [18] = target: Man(a1-2)Man(a1-2)Man(a1-3)Man
# Procedure, shortened: as §1
# [19] = target: Man(a1-2)Man(a1-2)Man(a1-6)[Man(a1-3)]Man
# Procedure, shortened: as §1
# [20] = target: Man(a1-2)Man(a1-3)Man
# Procedure, shortened: as §1
# [21] = target: Man(a1-2)Man(a1-3)[Man(a1-2)Man(a1-6)]Man
# Procedure, shortened: as §1
# [22] = target: Man(a1-2)Man(a1-3)[Man(a1-2)Man(a1-6)]Man(a1-6)[Man(a1-2)Man(a1-2)Man(a1-3)]Man
# Procedure, shortened: as §1
# [23] = target: Man(a1-2)Man(a1-3)[Man(a1-2)Man(a1-6)]Man(a1-6)[Man(a1-2)Man(a1-2)Man(a1-3)]Man(b1-4)GlcNAc(b1-4)GlcNAc
# Procedure, shortened: as §1
# [24] = target: Man(a1-2)Man(a1-3)[Man(a1-6)]Man(a1-6)[Man(a1-2)Man(a1-3)]Man(b1-4)GlcNAc(b1-4)GlcNAc
# Procedure, shortened: as §1
# [25] = target: Man(a1-2)Man(a1-6)[Man(a1-3)]Man(a1-6)[Man(a1-2)Man(a1-2)Man(a1-3)]Man
# Procedure, shortened: as §1
# [26] = target: Man(a1-2)Man(a1-6)[Man(a1-3)]Man(a1-6)[Man(a1-2)Man(a1-2)Man(a1-3)]Man(b1-4)GlcNAc(b1-4)GlcNAc
# Procedure, shortened: as §1
# [27] = target: Man(a1-3)[Man(a1-6)]Man
# Procedure, shortened: as §1
# [28] = target: Man(a1-3)[Man(a1-6)]Man(a1-6)[Man(a1-2)Man(a1-3)]Man(b1-4)GlcNAc(b1-4)GlcNAc
# Procedure, shortened: as §1
# [29] = target: Man(a1-3)[Man(a1-6)]Man(a1-6)[Man(a1-3)]Man
# Procedure, shortened: as §1
# [30] = target: Man(a1-3)[Man(a1-6)]Man(a1-6)[Man(a1-3)]Man(b1-4)GlcNAc(b1-4)GlcNAc
# Procedure, shortened: as §1
# [31] = target: Man(a1-3)[Man(a1-6)]Man(b1-4)GlcNAc(b1-4)GlcNAc
# Procedure, shortened: as §1
# [32] = target: Man(a1-6)Man
# Procedure, shortened: as §1
# [33] = target: Man(b1-4)GlcNAc
# Procedure, shortened: as §1
# [34] = target: Neu5Ac(a2-3)Gal
# Procedure, shortened: as §1
# [35] = target: Neu5Ac(a2-3)Gal(b1-3)GalNAc
# Procedure, shortened: as §1
# [36] = target: Neu5Ac(a2-3)Gal(b1-3)GalNAc(b1-3)Gal(a1-4)Gal(b1-4)Glc
# Procedure, shortened: as §1
# [37] = target: Neu5Ac(a2-3)Gal(b1-3)GalNAc(b1-4)[Neu5Ac(a2-3)]Gal(b1-4)Glc
# Procedure, shortened: as §1
# [38] = target: Neu5Ac(a2-3)Gal(b1-3)GalNAc(b1-4)[Neu5Ac(a2-8)Neu5Ac(a2-3)]Gal(b1-4)Glc
# Procedure, shortened: as §1
binder,measurement,setting,value
Gal 9 (Canis lupus) (protein) MAFSSSQPPYLSPGVPFSGKIQGGLQDGLKITINGTILYCNGTRFAVNFHSGHSDSDIAFHFNPRFEEGGYVVCNTKQKGSWGSEERKMQMPFQMGNPFELCFMVNSCDFKVTVNGSHFTQYSHRVPFHYVDTLSITGAVQLSYISFQSPGVWQSSSAPITQTVIHTVQTTPGQPFPNPIIPPTAYPTPTYPMPFFTSIPGGLYPSKSIIVSGTVLPGAKRFHINLRSGNDIAFHLNPRFNENTVVRNMQINNSWGSEERSLPRKMPFVQGQSFSVWIMCEGHCFKVAVDGEHLFEYYHRLKNLLAINNMEVAGDVQLTHVQT,glycan array binding signal (z-score),[1],-0.327
same,glycan array binding signal (z-score),[2],-0.336
same,glycan array binding signal (z-score),[3],-0.324
same,glycan array binding signal (z-score),[4],-0.362
same,glycan array binding signal (z-score),[5],-0.332
same,glycan array binding signal (z-score),[6],-0.339
same,glycan array binding signal (z-score),[7],-0.319
same,glycan array binding signal (z-score),[8],-0.343
same,glycan array binding signal (z-score),[9],-0.35
same,glycan array binding signal (z-score),[10],-0.333
same,glycan array binding signal (z-score),[11],-0.104
same,glycan array binding signal (z-score),[12],0.013
same,glycan array binding signal (z-score),[13],0.082
same,glycan array binding signal (z-score),[14],-0.194
same,glycan array binding signal (z-score),[15],0.189
same,glycan array binding signal (z-score),[16],-0.322
same,glycan array binding signal (z-score),[17],-0.335
same,glycan array binding signal (z-score),[18],-0.336
same,glycan array binding signal (z-score),[19],-0.342
same,glycan array binding signal (z-score),[20],-0.338
same,glycan array binding signal (z-score),[21],-0.359
same,glycan array binding signal (z-score),[22],-0.261
same,glycan array binding signal (z-score),[23],-0.361
same,glycan array binding signal (z-score),[24],-0.326
same,glycan array binding signal (z-score),[25],-0.328
same,glycan array binding signal (z-score),[26],-0.303
same,glycan array binding signal (z-score),[27],-0.345
same,glycan array binding signal (z-score),[28],-0.338
same,glycan array binding signal (z-score),[29],-0.346
same,glycan array binding signal (z-score),[30],-0.322
same,glycan array binding signal (z-score),[31],-0.344
same,glycan array binding signal (z-score),[32],-0.35
same,glycan array binding signal (z-score),[33],-0.344
same,glycan array binding signal (z-score),[34],-0.335
same,glycan array binding signal (z-score),[35],0.374
same,glycan array binding signal (z-score),[36],0.612
same,glycan array binding signal (z-score),[37],1.3
same,glycan array binding signal (z-score),[38],-0.276
